Out of some 150,000 compounds screened, about 540 (0.36%) showed an effect of 50% or more. Some of the results follow.
System: Plasmodium falciparum
Assay: Primary screen in NF54 nanoGlo assay, in single point, at 2uM, 72h; a lower Z score goes with more inhibition
Format: functional, Erythrocyte
Details: timepoint 72 hour

`COCCNC(=O)CCN(CC(C)C)C(=O)c1cc(C)on1` was tested. Which “% Inhibition” value did it give?
Its value is -5%.

What about the Z score of the same molecule?
The Z score was 0.69.

For `O=C(Nc1cccs1)Nc1ccccc1NC(=O)c1cccs1`, which “% Inhibition” value is on record?
The value was 3%.

What about the Z score of the same molecule?
Its Z score is -0.41.

How did the “% Inhibition” value turn out when `CCN=C(NCCOc1ccc(OC)cc1)N(C)C` was run?
The value was 1%.

What about the Z score of the same molecule?
Its Z score is -0.1.

Which “% Inhibition” value does the source give for `Cc1cccc(C(=O)N2CCc3[nH]nc(C(=O)N4CCOCC4)c3C2)c1` here?
The value was -4%.

What about the Z score of the same molecule?
The Z score was 0.64.

How did the “% Inhibition” value turn out when `O=C(C[C@H]1CC(=O)Oc2ccccc21)Nc1nnn[nH]1` was run?
The value was -12%.

What about the Z score of the same molecule?
Its Z score is 1.59.

With `CNS(=O)(=O)c1cc(-c2[nH]ncc2C(=O)N(C)C)oc1C` as the molecule, how does the “% Inhibition” value read?
The value was -4%.

What about the Z score of the same molecule?
The Z score was 0.42.

How did the “% Inhibition” value turn out when `Cc1cc(F)ccc1NC(=O)C(=O)NCc1csc(C(C)(C)C)n1` was run?
The value was -10%.

And the Z score?
Its Z score is 1.28.

How did the “% Inhibition” value turn out when `CC(C)(C)OC(=O)N[C@H]1CCCCC[C@H]1C(=O)O` was run?
The value was -4%.

And the Z score?
The Z score was 0.49.

What does the source list for `O=C(Nc1nc2c(s1)CN(C(=O)c1nc3ccccc3s1)CC2)c1ccco1`?
% Inhibition: -16%; Z score: 2.39

With `O=C(c1cc(-c2ccc(F)cc2)n[nH]1)N1CC(CF)C1` as the molecule, how does the “% Inhibition” value read?
The value was -9%.

What about the Z score of the same molecule?
Its Z score is 1.79.

Which results are given for `NC1(c2noc(-c3sc4cc(Cl)ccc4c3Cl)n2)CCC1`?
% Inhibition: -6%; Z score: 0.66

With `Cn1c(CN2CCC(O)CC2)nnc1C1CCN(C(=O)CC2CC2)CC1` as the molecule, how does the “% Inhibition” value read?
Its value is 4%.

And the Z score?
The Z score was -0.64.

With `CCOc1cc(N2CCC=C(c3cccnc3)C2)ncn1` as the molecule, how does the “% Inhibition” value read?
The value was -6%.

And the Z score?
Its Z score is 0.65.

Which results are given for `COC(C)(C)/C=C(\N)C(=O)c1ccccc1`?
% Inhibition: -12%; Z score: 1.55

What does the source list for `CCS(=O)(=O)c1cc(F)ccc1NC(=O)N1CCC[C@H](n2cc(C)cn2)C1`?
% Inhibition: -2%; Z score: 0.27

With `Cc1noc(C)c1Cn1cnc2cc(F)c(F)cc21` as the molecule, how does the “% Inhibition” value read?
The value was -10%.

And the Z score?
The Z score was 1.47.

What does the source list for `CCOC(=O)c1cnc(NCc2cncc(F)c2)s1`?
% Inhibition: -5%; Z score: 0.88

`Cn1cc(-c2ccc(CN3CCCCC3)cc2)c(C#N)n1` was tested. Which “% Inhibition” value did it give?
Its value is 3%.

What about the Z score of the same molecule?
Its Z score is -0.51.

`CCNC(=O)c1cccc(N(C)S(C)(=O)=O)c1` was tested. Which “% Inhibition” value did it give?
The value was -2%.

What about the Z score of the same molecule?
Its Z score is 0.45.

How did the “% Inhibition” value turn out when `Cc1nn(-c2ccccc2)c2sc(C(=O)N3CCCC3)cc12` was run?
The value was -3%.

And the Z score?
Its Z score is 0.29.

How did the “% Inhibition” value turn out when `COCc1noc(CN2CCN(Cc3ccccc3)[C@H]3CS(=O)(=O)C[C@H]32)n1` was run?
Its value is -13%.

And the Z score?
The Z score was 1.7.

For `COc1cccc(-c2nc3ccc(-c4ccccc4)cn3c2CN2CCN(S(=O)(=O)c3ccc(F)cc3OC)CC2)c1`, which “% Inhibition” value is on record?
The value was 7%.

What about the Z score of the same molecule?
The Z score was -0.77.

For `CN(C)c1ccc(-c2nc3[nH]cnn3c2Nc2ccccc2)cc1`, which “% Inhibition” value is on record?
Its value is 36%.

What about the Z score of the same molecule?
Its Z score is -4.8.

`Cc1ccc(OCC[C@H]2CCN(C(=O)c3cccnc3)C2)cc1` was tested. Which “% Inhibition” value did it give?
The value was -8%.

What about the Z score of the same molecule?
The Z score was 1.46.

How did the “% Inhibition” value turn out when `CCNC(=NCCc1ncc(C)cn1)NCC` was run?
Its value is -12%.

What about the Z score of the same molecule?
Its Z score is 1.56.

`CCO[C@@H](C)C(=O)NCCNc1nc(C)cc(=O)[nH]1` was tested. Which “% Inhibition” value did it give?
Its value is -1%.

And the Z score?
Its Z score is 0.16.

Which results are given for `CC(=O)N1CCC(C(=O)N2C3CCC2CC(n2nccn2)C3)CC1` (stereo not drawn)?
% Inhibition: 3%; Z score: -0.52

For `CC1CN(CC(O)COCCOc2ccc(Cl)cc2)CC(C)O1` (stereo not drawn), which “% Inhibition” value is on record?
Its value is -4%.

And the Z score?
Its Z score is 0.7.

How did the “% Inhibition” value turn out when `CCN(C(=O)c1cn(CCOC)nn1)[C@@H](C)Cc1ccsc1` was run?
The value was -11%.

What about the Z score of the same molecule?
Its Z score is 2.14.

Which “% Inhibition” value does the source give for `Cc1ccc2nc(N3CCN(Cc4ccccc4)CC3)c(-c3noc(C)n3)cc2c1` here?
Its value is -13%.

And the Z score?
The Z score was 2.48.

How did the “% Inhibition” value turn out when `O=C(O)CCC1CCCN(C(=O)C2COCCO2)C1` (stereo not drawn) was run?
The value was 3%.

And the Z score?
Its Z score is -0.31.

What does the source list for `Cc1ccc2[nH]c(CCNC(=O)CCS(=O)(=O)c3ccc4c(c3)CC(=O)N4C)nc2c1`?
% Inhibition: 3%; Z score: -0.44

With `Cn1cnnc1CN1CCC2(CCC(=O)N(CCc3ccccn3)C2)CC1` as the molecule, how does the “% Inhibition” value read?
The value was 3%.

And the Z score?
Its Z score is -0.45.

Which results are given for `O=C(CN1CCO[C@H](c2cccc(O)c2)C1)N(C1CCCC1)C1CC1`?
% Inhibition: -2%; Z score: 0.31

`C[C@H](O)CC(C)(C)CNS(=O)(=O)c1ccc(F)cc1C#N` was tested. Which “% Inhibition” value did it give?
Its value is -4%.

And the Z score?
Its Z score is 0.37.

Which “% Inhibition” value does the source give for `O=C1NC[C@H]2O[C@H](CCOc3ccccc3C(=O)N3CCN(C4CCNCC4)C[C@@H]13)CC[C@H]2n1cc(CN2CCOCC2)nn1` here?
Its value is 5%.

And the Z score?
The Z score was -0.77.

Which “% Inhibition” value does the source give for `CC[C@@H](C(=O)NCc1ccc2c(c1)OCO2)n1nc(C)c2nn(-c3ccccc3)c(C)c2c1=O` here?
Its value is 3%.

What about the Z score of the same molecule?
The Z score was -0.44.

Which results are given for `Cc1cc([C@H](C)NCCc2nc(C)c(C)s2)no1`?
% Inhibition: -11%; Z score: 1.25

With `C[C@@H](CCc1ccccc1)NC(=O)C1CCN(S(=O)(=O)c2ccc(C#N)cc2)CC1` as the molecule, how does the “% Inhibition” value read?
The value was -7%.

What about the Z score of the same molecule?
Its Z score is 0.87.

Which results are given for `O=C(CN1CCC(COCc2ccc(F)cc2)CC1)N1CCc2ccccc21`?
% Inhibition: -13%; Z score: 1.44

For `COc1ccc(C(F)(F)c2nc(-c3ccsc3)no2)cc1`, which “% Inhibition” value is on record?
Its value is -2%.

And the Z score?
Its Z score is 0.38.

For `COc1ccccc1CC(NC(=O)C1CCOC1)C(C)C` (stereo not drawn), which “% Inhibition” value is on record?
The value was -1%.

And the Z score?
The Z score was 0.26.

What does the source list for `O=C(Nc1ccc(N2CCOCC2)cc1)[C@H]1CCCN(c2cnc3nccnc3c2)C1`?
% Inhibition: -2%; Z score: 0.45

Which “% Inhibition” value does the source give for `Cc1c(Cl)cc(NC(=O)N(C)Cc2ncnn2C)cc1Cl` here?
The value was -15%.

What about the Z score of the same molecule?
The Z score was 2.17.

What does the source list for `CC(C)[C@H]1C=CCN1Cc1cc2n(n1)CCCNC2`?
% Inhibition: 2%; Z score: -0.28

For `Cc1n[nH]c([C@@H]2CN(c3cc(C(C)(C)C)nc(C(C)(C)C)n3)CCO2)n1`, which “% Inhibition” value is on record?
The value was 31%.

And the Z score?
The Z score was -3.97.

What does the source list for `O=C(Nc1ccc2c(c1)CCC2)c1ccc(O)nc1`?
% Inhibition: -3%; Z score: 0.61

What does the source list for `O=C(NC1CCN2CCCCC12)c1csc(-c2ccco2)n1` (stereo not drawn)?
% Inhibition: -2%; Z score: 0.37

`CN(CCCc1nc2ccccc2[nH]1)C(=O)[C@@H]1COCCN1C1CCCC1` was tested. Which “% Inhibition” value did it give?
Its value is -6%.

And the Z score?
Its Z score is 0.93.

Which results are given for `CCN(CC)S(=O)(=O)c1ccc(NC(=O)[C@H]2CCCN(C)C2)cc1`?
% Inhibition: 4%; Z score: -0.56

Which results are given for `CC1=NO[C@H](C(=O)NCC2(Cn3ccnc3C)CC2)C1`?
% Inhibition: -4%; Z score: 0.75

For `O=C(Nc1ccc(F)cc1)N[C@H](c1ccccc1)c1cccs1`, which “% Inhibition” value is on record?
The value was -11%.

What about the Z score of the same molecule?
Its Z score is 0.89.

For `COc1cccc(NC(=O)N[C@H]2[C@H](O)[C@@H](Oc3ccccc3)[C@@H]3OC[C@H]2O3)c1`, which “% Inhibition” value is on record?
The value was 4%.

And the Z score?
The Z score was -0.65.

With `CC(C)CN(CC1CN(Cc2cccc(C(F)(F)F)c2)CC1c1cccc(C(F)(F)F)c1)C(=O)c1ccccc1` (stereo not drawn) as the molecule, how does the “% Inhibition” value read?
Its value is -8%.

And the Z score?
Its Z score is 1.01.

Reference: ChEMBL document CHEMBL4888484, “Replenishing the malaria drug discovery pipeline: Screening and hit evaluation of the MMV Hit Generation Library 1 (HGL1) against asexual blood stage Plasmodium falciparum ,using a nano luciferase reporter read-out” (2022)
